Data reported in PubChem BioAssay (NCI).
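Protocol summary: plate cells (96-well), add compound at 5 concentrations, incubate 48 h, interpolate endpoints linearly. Abbreviation: GI50, concentration required for 50% inhibition of growth. At the TGI there is no net growth.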 Peptide text beside a SMILES is read from it.

System: NCI-H322M lung
Test: NCI-60 cell line screen, 48 h

Structure (SMILES) | GI50 [µM] | TGI [µM]
COc1ccc2c(C3=C(c4cn(C)c5ccccc45)C(=O)NC3=O)coc2c1 | 1.73 | 61.3
CC[C@@](C)(NC(=O)C(C)(C)NC(=O)[C@@H](NC(=O)[C@@H]1CCCN1C(=O)C(C)(C)NC(=O)[C@H](CC(C)C)NC(=O)CNC(=O)C(C)(C)NC(=O)[C@@H](NC(=O)C(C)(C)NC(=O)[C@H](CCC(N)=O)NC(=O)[C@H](C)NC(=O)C(C)(C)NC(=O)[C@H](C)NC(=O)C(C)(C)NC(=O)[C@@H]1CCCN1C(=O)C(C)(C)NC(C)=O)C(C)C)C(C)C)C(=O)N[C@@H](CCC(N)=O)C(=O)N[C@@H](CCC(N)=O)C(=O)N[C@H](CO)Cc1ccccc1 (HELM PEPTIDE1{[ac].[Aib].P.[Aib].A.[Aib].A.Q.[Aib].V.[Aib].G.L.[Aib].P.V.[Aib].[CC[C@@](C)(N[*:1])C(=O)[*:2]].Q.Q.[OC[C@H](Cc1ccccc1)N[*:1]]}$$$$V2.0) | 3.21 | > 4.25
